Among all 310,000 compounds or so, about 2,200 (0.71%) showed an effect of 50% or more. The effect is printed as a negative number. This is one part of the list.
Target: human ether-à-go-go-related gene (hERG) potassium channel (human, UniProt Q12809)
Assay: primary screen, population patch clamp on CHO cells stably expressing hERG

Sequence of human ether-à-go-go-related gene (hERG) potassium channel (Q12809 whole entry, looked up): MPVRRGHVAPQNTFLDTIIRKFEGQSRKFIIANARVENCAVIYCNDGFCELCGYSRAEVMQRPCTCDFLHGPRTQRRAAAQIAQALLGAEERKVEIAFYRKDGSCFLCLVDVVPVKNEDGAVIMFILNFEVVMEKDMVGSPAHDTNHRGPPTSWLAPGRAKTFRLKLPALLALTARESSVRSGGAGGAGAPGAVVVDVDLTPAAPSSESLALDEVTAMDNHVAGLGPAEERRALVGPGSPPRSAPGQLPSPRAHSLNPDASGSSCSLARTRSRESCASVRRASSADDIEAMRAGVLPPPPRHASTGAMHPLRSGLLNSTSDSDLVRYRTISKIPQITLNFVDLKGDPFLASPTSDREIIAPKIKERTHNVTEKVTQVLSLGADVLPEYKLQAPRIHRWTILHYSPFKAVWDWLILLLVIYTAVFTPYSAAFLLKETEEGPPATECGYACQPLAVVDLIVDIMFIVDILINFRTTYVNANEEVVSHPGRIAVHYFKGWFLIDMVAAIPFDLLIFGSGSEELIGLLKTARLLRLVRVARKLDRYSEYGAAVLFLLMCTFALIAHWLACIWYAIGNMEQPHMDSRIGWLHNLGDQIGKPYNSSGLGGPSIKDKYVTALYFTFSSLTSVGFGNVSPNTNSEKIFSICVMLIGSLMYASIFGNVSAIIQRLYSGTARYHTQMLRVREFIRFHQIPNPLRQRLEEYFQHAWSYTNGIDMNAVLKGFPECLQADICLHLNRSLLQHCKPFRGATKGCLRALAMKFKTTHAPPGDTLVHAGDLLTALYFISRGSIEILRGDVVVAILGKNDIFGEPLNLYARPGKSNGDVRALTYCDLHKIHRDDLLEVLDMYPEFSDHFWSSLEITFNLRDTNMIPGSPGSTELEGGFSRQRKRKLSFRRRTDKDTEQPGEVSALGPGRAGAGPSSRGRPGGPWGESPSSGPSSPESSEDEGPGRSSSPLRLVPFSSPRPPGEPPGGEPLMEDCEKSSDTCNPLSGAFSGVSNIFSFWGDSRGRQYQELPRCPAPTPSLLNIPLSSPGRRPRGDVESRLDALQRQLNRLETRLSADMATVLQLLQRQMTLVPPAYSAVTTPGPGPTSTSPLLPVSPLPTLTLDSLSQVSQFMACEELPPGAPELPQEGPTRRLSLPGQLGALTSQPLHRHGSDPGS

SMILES	hERG current change (%, negative = inhibition) at 1uM
Nc1ccc(S(=O)(=O)Nc2nccc(/C=C/c3ccc([N+](=O)[O-])cc3)n2)cc1	7.5%
Cc1ccccc1OCC(=O)Nc1cc(S(=O)(=O)N2CCOCC2)ccc1N1CCCC1	-6.9%
CCC(C)NC(=O)C1CCCN(S(=O)(=O)c2ccc(-n3cnnn3)cc2)C1 (stereo not drawn)	7.44%
CCOC(=O)c1cccc(N/C=C/C(=O)c2ccc(OC)c(OC)c2)c1	14.7%
COc1cc(C(=O)N/N=C/C2CC=CCC2)cc(OC)c1OC (stereo not drawn)	4.88%
COc1cc(C)nc(Oc2ccc(/C=N/O)cc2)n1	6.8%
CCOCc1nnc(NC(=O)c2ccc3c(c2)OCO3)s1	12.4%
O=C(CSc1n[nH]c(-c2cccnc2)n1)Nc1cccc(Cl)c1	16.5%
O=C(c1c(F)cccc1F)N1CCN=C1SCc1ccccc1	6.87%
O=C(NCCN1CCOCC1)c1ccc(CS(=O)(=O)Cc2ccccc2F)o1	3.24%
COc1ccc(NC(=O)CSc2nc(O)cc(=O)n2-c2ccc(OC)cc2)cc1	14.3%
Cc1cccc(C)c1OCc1cc(C(=O)NCC2CCCCC2)no1	14.5%
COCCCn1c(SCC(=O)OC2CCCCC2)nnc1-c1cccs1	5.56%
COc1ccc(C(=O)NNC(=O)C(=O)N2CCCCC2)cc1OC	51.1%
COc1ccc2oc(=O)c(C(=O)NC(C)c3ccccc3)cc2c1 (stereo not drawn)	3.52%
Cc1ccc(S(=O)(=O)Nc2ccc3c(c2)nc(C)n3C)cc1	7.92%
COc1cc(S(=O)(=O)Nc2ccc(C(=O)NCC(=O)O)cc2)ccc1NC(C)=O	4.32%
N#Cc1nc(-c2ccccc2Cl)oc1N1CCOCC1	7.45%
CCCCOc1ccccc1N	19.1%
CCc1cccc2c(C(=O)CN3C(=O)NC(C)(c4cccc5ccccc45)C3=O)c[nH]c12 (stereo not drawn)	15.5%
O=C(NC1CCCN(Cc2ccc(Cl)cc2)C1)c1ccnc(Cl)c1 (stereo not drawn)	1.36%
CCOc1ccc2oc(=O)cc(CN3CCOCC3)c2c1	7.89%
COc1ccc(NS(=O)(=O)c2ccc(NC(=O)c3ccccn3)cc2)cc1	5.62%

SMILES	hERG current change (%, negative = inhibition) at 1uM
COCC(C)NC(C(=O)Nc1ccc(C)c(Cl)c1)c1ccccc1 (stereo not drawn)	4.35%
COc1ccccc1NC(C)C(=O)N/N=C/c1cccs1 (stereo not drawn)	9.31%
COc1ccc(Cl)cc1NC(=O)CSc1ncnc2c1oc1ccccc12	16.9%
Cc1cccc(C)c1NC(=O)c1cc(S(=O)(=O)N2CCc3ccccc32)cn1C	5.37%
Cc1c(C(=O)NCCc2ccccc2)oc2ccc(S(=O)(=O)N3CCOCC3)cc12	3%
O=C(Cn1cnc(Cl)c1Cl)c1ccccc1	11.8%
CN1N=C(C(F)(F)F)CC1=O	5.29%
O=C(Nc1ccc(N2CCOCC2)cc1)c1cccc(S(=O)(=O)N2CCC(Cc3ccccc3)CC2)c1	3.12%
O=C(NCCSCc1c(F)cccc1Cl)c1ccco1	7.05%
CCN(CC)C(=O)COc1ccc(/C=C(\C#N)S(=O)(=O)c2ccccc2)cc1OC	5.6%
CC(CCOS(N)(=O)=O)c1ccccc1 (stereo not drawn)	12.8%
CC(C)c1ccccc1NCC(=O)N1CCN(Cc2ccccc2)CC1.Cl	-1.39%
COCCCNCCCOc1ccc(Cl)cc1Br	1.29%
O=C(c1csc2ccccc12)n1cccn1	9.92%
CCCN1CCC(N2CCN(c3ccc([N+](=O)[O-])cc3)CC2)CC1	-62.7%
CCCCC(=O)Nc1sc2c(c1C(=O)OCC)CCC(C=O)=C2Cl	17%
COc1cccc(-c2cc3nc(-c4ccccc4)cc(=O)n3[nH]2)c1	6.7%
COc1ccc(NC(=S)NNc2ccc(S(=O)(=O)Nc3ccccc3C(=O)O)cc2[N+](=O)[O-])cc1	9.69%
O=C(NC(=S)NCCCN1CCOCC1)c1ccco1	-2.56%
COC(=O)C(C#N)C(c1cccnc1)c1c(C)[nH][nH]c1=O (stereo not drawn)	9.74%
O=C(NC1CCCCCC1)c1c(O)nc2sccn2c1=O	3.99%
O=C(Nc1ccc(Cl)c(Cl)c1)N1CCCCCC1	2.3%

Reference: PMC4336329 (PLoS ONE, 2015)
